Measurements published in PubChem BioAssay AID1240 (Sanford-Burnham Center for Chemical Genomics, 2008).
Out of some 50,000 compounds screened, about 800 (1.6%) showed an effect of 50% or more. This is one part of the list.

molecular target: Bcl-2-like protein 10 (Homo sapiens) (UniProt Q9HD36); experiment: TR3 peptide-Bcl-B binding displacers, biochemical primary FP assay, phenotype converters (AID 1240); conditions: GST-Bcl-B / FITC-TR3 peptide fluorescence polarization; stronger effect = higher value; compound at 3.75 mg/L;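 also: 0% = Bcl-B with tracer peptide and DMSO and 100% = tracer peptide lacking Bcl-B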
Sequence of UniProt Q9HD36 (Q9HD36 whole entry, looked up): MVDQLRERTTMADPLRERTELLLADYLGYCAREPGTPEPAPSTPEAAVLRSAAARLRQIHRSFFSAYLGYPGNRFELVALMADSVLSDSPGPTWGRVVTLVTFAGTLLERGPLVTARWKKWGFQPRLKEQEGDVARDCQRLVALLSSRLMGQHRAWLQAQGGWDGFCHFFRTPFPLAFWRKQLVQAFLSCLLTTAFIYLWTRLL

SMILES | displacement
COc1ccccc1C(=O)Nc1nc(-c2ccc(S(=O)(=O)N3CCOCC3)cc2)cs1 | 10.4%
COc1cccc(OC)c1C(=O)NC1CCCCC1 | 6.5%
CC1=NOC(=O)/C1=C/c1ccc(C)cc1 | 5.8%
Cc1ccccc1C(=O)NNC(=O)c1cccc([N+](=O)[O-])c1 | -7.7%
COc1cc(C=O)c(OC)cc1Br | 13.6%
COc1ccccc1C(=O)O/N=C1/CCCc2c1ccc(OC)c2[N+](=O)[O-] | 19.7%
O=C(NC(NC(=S)Nc1ccc(I)cc1)C(Cl)(Cl)Cl)c1cccc([N+](=O)[O-])c1 (stereo not drawn) | -1.3%
O=[N+]([O-])c1ccc(OC(CNS(=O)(=O)c2ccc(Cl)cc2)c2ccccc2)cc1 (stereo not drawn) | -4.6%
CCOc1nc(-c2ccccc2)cc(-c2ccc(Br)cc2)n1 | -2.2%
CN1C(=O)/C(=C\c2nc3ccccc3c(=O)n2C)c2cc(Br)ccc21 | -7%
CC(C)(C)c1ccc(/C=C/C(=O)NCc2cccnc2)cc1 | -0.3%
Nc1nonc1NC(=O)N/N=C\c1ccccc1F | -7.4%
CCN(CC)S(=O)(=O)c1cc(C(=O)Nc2ccc(C(=O)O)cc2)ccc1Cl | -9.6%
CCNC(=O)C(=O)Nc1ccc(Cl)cc1 | 7.3%
O=C(CC1(O)C(=O)Nc2ccc(Br)cc21)c1ccc2ccccc2c1 (stereo not drawn) | 11.5%
CC1=CC(C)(C)Nc2ccc(OC(=O)Cc3cccc4ccccc34)cc21 | 1.4%
Cc1ccc2nc(-c3cccc(NC(=O)c4cccs4)c3)oc2c1 | 5.2%
COc1ccccc1C1C(C#N)=C(N)Oc2c1sc1ccccc21 (stereo not drawn) | 13.2%
CCOC(=O)C1CCN(C(=O)c2ccccc2[N+](=O)[O-])CC1 | -11.6%
O=C(/C=C/c1ccc(-c2cccc([N+](=O)[O-])c2)o1)c1ccc(F)cc1 | 3.4%
Cc1cc(OCC(=O)NC2C3CC4CC(C3)CC2C4)ccc1Br (stereo not drawn) | -6.7%
O=C(Nc1ccc2oc(-c3cccc(Cl)c3Cl)nc2c1)c1ccco1 | -18.1%
O=C(NCc1ccncc1)C(=O)NCc1ccccn1 | -18.8%
COc1ccc(C)cc1NS(=O)(=O)c1ccc(Cl)cc1 | 10.5%
O=C1c2ccccc2C(O)(c2ccc(Br)cc2)N1c1ccccc1 (stereo not drawn) | 5.5%

SMILES | displacement
O=C(N/N=C/c1sc2ccccc2c1Cl)c1ccncc1 | 6.9%
c1ccc(-c2nc(N3CCCCC3)nc3ccccc23)cc1 | -5.4%
O=C(CC1Nc2ccccc2NC1=O)NCc1ccccc1 (stereo not drawn) | -4.7%
O=C(O)c1ccc(-c2ccc(Br)cc2)o1 | -2.2%
CCCCNCCCCCOc1ccc(C)c(C)c1 | 0.8%
O=C(CN(Cc1ccccc1)S(=O)(=O)c1ccccc1)NCc1ccncc1 | 14.5%
CCCC(=O)Nc1ccc(NC(=O)c2cc(Br)ccc2Cl)cc1 | 13.6%
CCOC(=O)/C(C#N)=C/c1sccc1C | -10.1%
CCCN(CCC)c1ccc(/C=N\NC(=O)C2COc3cc4ccccc4cc3O2)cc1 (stereo not drawn) | -5.7%
COc1ccc(C(=O)Nc2ccc3nn(-c4ccc(C)cc4)nc3c2)cc1Br | 26%
Cc1ccc(OCC(=O)Nc2ccc(C)c(Cl)c2)c(Br)c1 | -4.5%
O=C(c1ccc2nc3c4ccccc4c4ccccc4c3nc2c1)N1CCOCC1 | 18.3%
COC(=O)c1c(C)oc2ccc(O)cc12 | 18.3%
CC(C(=O)O)N1C(=O)/C(=C/c2cccs2)SC1=S (stereo not drawn) | 9.1%
O=C(CC(=O)NCc1ccccc1)NCc1ccccc1 | 2.7%
CCOc1ccc(N2C(=O)NC(=O)/C(=C\c3cc(C)n(-c4cccnc4)c3C)C2=O)cc1 | -2.4%
COc1ccc(OC)c(N(CC(=O)N2CCc3ccccc3C2)S(=O)(=O)c2ccccc2)c1 | 5.2%
COC(=O)c1ccc(C(=O)OC)c(NC(=O)/C=C/c2ccccc2)c1 | 8.7%
CC1(C)CC(=O)C2=C(C1)OC1=C(C(=O)CC(C)(C)C1)C2c1ccc(OCC(=O)O)cc1 | 6.4%
CC(C)=C1C2C=CC1C1C(=O)N(c3ccc(C)c(C)c3)C(=O)C21 (stereo not drawn) | 12.7%
COc1ccc(OC)c(NC(=O)c2ccccc2F)c1 | 1%
CC(=O)Nc1ccccc1-c1nn[nH]n1 | 1%
O=C(CN(c1cccc(Br)c1)S(=O)(=O)c1ccccc1)Nc1ccc(Cl)cc1 | 3%
O=C(Nc1nc2ccccc2n1CCN1CCCC1)c1ccc(Cl)cc1 | -10.4%
COc1ccc(C2CC(=O)C3=C(C2)Nc2ccccc2NC3c2ccccc2C)cc1OC (stereo not drawn) | 4.1%

SMILES | displacement
C/C(=N\NC(N)=O)C1CC1(C)C(C)(C)C (stereo not drawn) | 13.6%
Cc1cc(C)c(S(=O)(=O)N(C)Cc2ccccc2)c(C)c1 | -11.3%
Cc1cccc(N2C(=O)c3ccc(-c4nc5ccccc5c(=O)o4)cc3C2=O)c1 | 2.4%
CC(C)CNC(=O)CN(c1ccccc1)S(=O)(=O)c1ccccc1[N+](=O)[O-] | 13%
O=C(Nc1cccc(F)c1)c1ccc([N+](=O)[O-])cc1 | 3.2%
COCc1cc(C)nc(SCC(=O)NC(C)(C)C)c1C#N | 2.6%
Cc1cccc(N2CCN(C(=S)c3ccccc3)CC2)c1 | 11.9%
O=C(c1cccc(Br)c1)N1CCN(c2ccc(F)cc2)CC1 | 10.9%
C/C(=N/NC(=O)c1cccnc1)c1cc(O)ccc1O | -12%
COC(=O)c1ccc(/C=N/N=C2\C(=O)Nc3ccccc32)cc1 | -5.5%
CCc1ccc(-c2nc(-c3cccnc3)no2)cc1 | -6.7%
CCOc1ccc(/C=C2\C(=O)NC(C)=C2C(=O)OC)cc1 | 10.8%
CCNC(=O)NC(C(=O)OC)C12CC3CC(CC(C3)C1)C2 (stereo not drawn) | -10.1%
CCCCOc1ccc(C(=O)NCCC2(O)CCOC(C)(C)C2)cc1 (stereo not drawn) | 6.6%
Cc1ccc(C(=O)N2CCN(c3ccc([N+](=O)[O-])cc3)CC2)cc1C | 6%
CCN=C(Nc1ccc2c(c1)OCO2)SC1CC(=O)N(c2ccc(Br)cc2)C1=O (stereo not drawn) | -0.2%
O=C(COc1cccc2ccccc12)Nc1ccc2c(c1)OCCO2 | 8.3%
COc1ccc(OC)c(N(CC(=O)Nc2cccc(Br)c2)S(C)(=O)=O)c1 | 12.2%
Cc1cc(OCC(=O)N2CCCC2)ccc1Br | -9.6%
C/C(CC(=O)Nc1ccc(Nc2ccccc2)cc1)=N\NC(=O)c1ccoc1C | 0.4%
CC12CN3CC(C)(CN(C1)C3(C)CSc1c[nH]c3ccccc13)C2=O (stereo not drawn) | -14%
O=C(Nc1ccc(Cl)cc1)C1CC2c3ccccc3C1c1ccccc12 (stereo not drawn) | -8.9%
COc1cc(NC(=O)c2cccc3c(Br)cccc23)ccc1NC(=O)c1ccco1 | 1.8%
